In all, about 81,000 sequences were measured (“one-hybrid fitness for binding parS DNA”: median about -0.17, highest 2% from about 0.51 on). This is one part of the list.
B1: Caulobacter ParB omega fusion; a variant is named by its letters at X, in order, B8GW30 (parent)
chain: MESVVVGEPGMSEGRRGLGRGLSALLGEVDAAPAQAPGEQLGGSREAPIEILQRNPDQPRRTFREEDLEDLSNSIREKGVLQPILVRPSPDTAGEYQIVAGERAWRAAQRAGLKTVPIMVRELDDLAVLEIGIIENVQRADLNVLEEALSYKVLMEKFERTQENIAQTIGKSXSHVANXMRLLXLPDEVQSYLVSGELTAXHARAIAAAADPVALAKQIIEGGLSVRETEALARKAPNLSAGKSKGGRPPRVKDTDTQALESDLSSVLGLDVSIDHRGSTGTLTITYATLEQLDDLCNRLTRGI

Variants of: B1
Assay: one-hybrid fitness for binding parS DNA (scaled: cognate 1, non-cognate 0); higher = stronger binding
Conditions: with parS DNA site
How it was run: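 Selection: bacterial one-hybrid in E. coli USO, HIS3 reporter with the site 19 bp from the promoter, 48 hours at 37°C on M9-minus-histidine plus 0.1 mM IPTG and 5 mM 3-AT. Libraries were Caulobacter ParB with four randomised specificity codons, sequenced on Illumina before and after selection. Fitness is the rescaled log change in variant-to-wild-type read ratio, anchored to the cognate and non-cognate sites.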

one-hybrid fitness for binding parS DNA, 0.604:
RRYT

one-hybrid fitness for binding parS DNA, 0.283:
RIFK

one-hybrid fitness for binding parS DNA, 0.251:
EGGG

one-hybrid fitness for binding parS DNA, 0.948:
RNNG

one-hybrid fitness for binding parS DNA, 0.651:
RRTS

one-hybrid fitness for binding parS DNA, ≤ 0.2:
AYEM
SEHR
MTTE
GSCS
RSDR
TEWG
NTPA
KQGL
RYPF
SSIS
STCH
PRRE
HRIT
IYCF
VTWR
RTVP
NLGW
VCTR
PYAQ
FSAC
MNAN
FKQW
LCKV
SARW
KYIT
CYVR
IRRV
AKCS
DSIG
ILYG
GETD
PNIT
CAFA
PQNR
WLTG
LGWR
QSQA
KDNC
RKMP
HEWC
FYVT
QTVH
SSCR
VQMR
PRGC
YSRS
VEKG
HWNR
EYVV
AKRE
TVVW
STER
CTWL
QVRY
SDNF
LMTS
HEPW
TNTW
LPYF
RSTK
PDMS
PCTK
STIC
TPDY
KMVC
SEHW
LRQF
VGKY
LRAF
SGQS
FEPP
LPDN
YRLC
WPAA
ISYT
PRMD
YDAV
KWQW
GSTP
SQLC
DWPS
SDTP
CKMS
RCCK
VVSW
CDLR
NEGG
IARH
CGER
AFAN
PSNC
KSEY
CAVM
KAAK
RRMD
QFPC
LMNH
GVVC
RFNH
DTDT
VPNR
TSPI
QLHC
PLVC
HVRR
IRGA
LLAM
HPVS
ETNY
SWSG
KRPY
RPMR
YISA
INHL
AWCS
RHGL
FNTY
TFRR
YSDT
CPSM
RNHW
PCVY
LDDK
PPLA
ETIT
PSPP
LQWD
CQTG
THYR
QSYD
SGDT
AYIC
ELAN
SLQQ
RCFV
VSRV
MWEG
WGFS
NGNP
QGHA
YSIS
TYWF
LDGC
TRTA
AKNL
MMNL
HAVE
GQRR
SISK
IHFT
SQRL
HVAM
QYET
RFEW
LGEF
VDGV
KQSS
LGNG
KLMR
FFPG
PYFY
RWGM
HHMR
QVFI
NPRS
RQML
TKTP
QNEM
QYLA
CRVE
SRSK
DDAS
IRGV
THPW
LNEV
TCRS
RHQV
HTTT
WDLC
AQMM
RPVI
RGAM
NLCC
VSCT
WFGG
VNRT
GQWL
LVRH
YTRW
MNYT
VKTC
QRYV
PSDD
NSNF
NCLM
YAPS
YGNF
QWVN
SQQW
HYYG
PVVA
CCTK
ASPE
SFAF
TSRT
RFLE
QVYC
REYE
HPSC
QCAF
YPVS
LCLN
KYNG
SMVR
LSRC
SHPI
IQLY
RAFE
WDAG
RGNK
AYGW
CTCV
GKES
FGYG
GPNT
EPKS
SSPN
QGHD
HGMG
PAAG
VIRC
RMDL
HVTM
RRVW
PDRC
HASK
AAVK
IYDP
HATY
NKNM
YYMC
DNMW
HQIS
QMAV
IRVQ
HSWF
ESHL
VFVF
SIHR
RIPL
KYLP
CLSK
NNGG
ISCK
MVHG
LNKM
MMML
RSAL
ATIT
QHTF
PTVG
TKDS
KGSM
MWIF
RPPE
KKTI
GWTC
IQCV
SSNP
PPEG
NSSG
TREY
FQYR
GQNT
AYTC
CLHC
DKTG
WENE
VAIT
RSVD
PAWG
KVRI
QRTI
FYMG
IYER
VKPP
VNTE
CTQP
DRCR
HQSI
RHIL
ITYY
LYDA
SGLN
TDHS
FTGV

one-hybrid fitness for binding parS DNA, 0.43:
RWVT

one-hybrid fitness for binding parS DNA, 0.256:
LWKS

one-hybrid fitness for binding parS DNA, 0.237:
RTQW

one-hybrid fitness for binding parS DNA, 0.999:
RVAG

one-hybrid fitness for binding parS DNA, 1.02:
RLLG

Reference: a collection of fitness landscapes (doi:10.1016/j.celrep.2020.107928)
